Laboratory results as given in the supplement of paper PMC8728848.
The other results are listed elsewhere or left out.

Legend:
Test in all cases: glycan array binding signal (z-score within array); higher = stronger binding
Conditions in all cases: glycan notation: IUPAC condensed, linker removed
[1] = molecular target: Neu5Ac(a2-8)Neu5Ac(a2-8)Neu5Ac
Summary of the method: (§1)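 The Consortium for Functional Glycomics database supplied 3228 glycan arrays, of which those lacking an available protein sequence were dropped. The binding signal, a within-array Z-score, was averaged across arrays of the same protein sequence and across linkers. Negative scores can be read as non-binding.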

[2] = molecular target: Neu5Ac(a2-8)Neu5Ac(a2-8)Neu5Ac(a2-3)Gal(b1-4)Glc
Summary of the method: as §1

[3] = molecular target: Neu5Ac(a2-8)Neu5Ac(a2-8)Neu5Ac(a2-3)[Gal(b1-3)GalNAc(b1-4)]Gal(b1-4)Glc
Summary of the method: as §1

[4] = molecular target: Neu5Ac(a2-8)Neu5Ac(a2-8)Neu5Ac(a2-3)[GalNAc(b1-4)]Gal(b1-4)Glc
Summary of the method: as §1

[5] = molecular target: Neu5Ac(a2-8)Neu5Ac(a2-8)Neu5Ac(a2-8)Neu5Ac(a2-3)[GalNAc(b1-4)]Gal(b1-4)Glc
Summary of the method: as §1

[6] = molecular target: Neu5Ac(a2-8)Neu5Gc(a2-3)Gal(b1-4)GlcNAc
Summary of the method: as §1

[7] = molecular target: Neu5Ac(b1-6)GalNAc
Summary of the method: as §1

[8] = molecular target: Neu5Ac(b2-6)Gal(b1-4)GlcNAc
Summary of the method: as §1

[9] = molecular target: Neu5Ac(b2-6)GalNAc
Summary of the method: as §1

[10] = molecular target: Neu5Ac9Ac(a2-3)Gal(b1-4)GlcNAc
Summary of the method: as §1

[11] = molecular target: Neu5Ac9Ac(a2-6)Gal(b1-4)GlcNAc
Summary of the method: as §1

[12] = molecular target: Neu5Gc(a2-3)Gal(b1-3)GlcNAc
Summary of the method: as §1

[13] = molecular target: Neu5Gc(a2-3)Gal(b1-3)[Fuc(a1-4)]GlcNAc
Summary of the method: as §1

[14] = molecular target: Neu5Gc(a2-3)Gal(b1-4)Glc
Summary of the method: as §1

[15] = molecular target: Neu5Gc(a2-3)Gal(b1-4)GlcNAc
Summary of the method: as §1

[16] = molecular target: Neu5Gc(a2-3)Gal(b1-4)GlcNAc(b1-3)Gal(b1-4)GlcNAc(b1-2)Man(a1-3)[Neu5Gc(a2-3)Gal(b1-4)GlcNAc(b1-3)Gal(b1-4)GlcNAc(b1-2)Man(a1-6)]Man(b1-4)GlcNAc(b1-4)GlcNAc
Summary of the method: as §1

[17] = molecular target: Neu5Gc(a2-3)Gal(b1-4)[Fuc(a1-3)]GlcNAc
Summary of the method: as §1

[18] = molecular target: Neu5Gc(a2-3)Gal(b1-4)[Fuc(a1-4)]GlcNAc
Summary of the method: as §1

[19] = molecular target: Neu5Gc(a2-6)Gal(b1-4)GlcNAc
Summary of the method: as §1

[20] = molecular target: Neu5Gc(a2-6)GalNAc
Summary of the method: as §1

[21] = molecular target: Neu5Gc(a2-8)Neu5Ac(a2-3)Gal(b1-4)GlcNAc
Summary of the method: as §1

[22] = molecular target: Neu5Gc(a2-8)Neu5Gc(a2-3)Gal(b1-4)GlcNAc
Summary of the method: as §1

[23] = molecular target: Neu5Gc(a2-8)Neu5Gc(a2-3)Gal(b1-4)GlcNAc(b1-3)Gal(b1-4)GlcNAc
Summary of the method: as §1

[24] = molecular target: Neu5Gc(a2-8)Neu5Gc(a2-6)Gal(b1-4)GlcNAc
Summary of the method: as §1

[25] = molecular target: Neu5Gc(b2-6)Gal(b1-4)GlcNAc
Summary of the method: as §1

B1: Gal 2 (Homo sapiens), P05162 (protein)
chain: MTGELEVKNMDMKPGSTLKITGSIADGTDGFVINLGQGTDKLNLHFNPRFSESTIVCNSLDGSNWGQEQREDHLCFSPGSEVKFTVTFESDKFKVKLPDGHELTFPNRLGHSHLSYLSVRGGFNMSSFKLKE
B1 was tested, and the “glycan array binding signal (z-score)” value [1] was -0.235, the “glycan array binding signal (z-score)” value [2] was -0.247 and the “glycan array binding signal (z-score)” value [3] was -0.136. The “glycan array binding signal (z-score)” value [4] was -0.116, the “glycan array binding signal (z-score)” value [5] was -0.232 and the “glycan array binding signal (z-score)” value [6] was -0.088. For the same binder, the “glycan array binding signal (z-score)” value [7] was -0.388, the “glycan array binding signal (z-score)” value [8] was -0.244 and the “glycan array binding signal (z-score)” value [9] was -0.244. The “glycan array binding signal (z-score)” value [10] was -0.21, the “glycan array binding signal (z-score)” value [11] was -0.285 and the “glycan array binding signal (z-score)” value [12] was -0.248. For the same binder, the “glycan array binding signal (z-score)” value [13] was -0.249, the “glycan array binding signal (z-score)” value [14] was -0.261 and the “glycan array binding signal (z-score)” value [15] was -0.265. For the same binder, the “glycan array binding signal (z-score)” value [16] was -0.184, the “glycan array binding signal (z-score)” value [17] was -0.212 and the “glycan array binding signal (z-score)” value [18] was -0.423. For the same binder, the “glycan array binding signal (z-score)” value [19] was -0.227, the “glycan array binding signal (z-score)” value [20] was -0.263 and the “glycan array binding signal (z-score)” value [21] was -0.21. The “glycan array binding signal (z-score)” value [22] was -0.251, the “glycan array binding signal (z-score)” value [23] was -0.347 and the “glycan array binding signal (z-score)” value [24] was -0.115. The “glycan array binding signal (z-score)” value [25] was -0.217.
